Laboratory results from PubChem BioAssay AID686978 (National Center for Advancing Translational Sciences (NCATS), 2013).
Several values for one entry are separate records, joined by “and”; a condition that tells them apart may be missing. Equal entries are not always repeated. In all, about 420,000 compounds went through this assay and about 64,000 (15%) were called active. Inconclusive results, whose numbers are uncertain, are shown with a selection of clear calls. The call rests on the fitted dose curve; in most records, active means well fitted inhibition curve with a large enough effect; inconclusive means small, poorly fitted or top-dose-only effect; inactive means flat fitted curve, though single readings scatter. Potencies of inconclusive entries are doubtful fits and often do not repeat.

assay: qHTS for Inhibitors of human tyrosyl-DNA phosphodiesterase 1 (TDP1): qHTS in cells in absence of CPT; conditions: DT40 Tdp1-/- hTDP1 cells, no CPT, ATP luminescence, 48 h; activity change, negative = growth inhibition: at 46.2 µM (top of the series); further: nearly all actives have a fitted effect of over 55% in size
Procedure, shortened: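 Cells were dispensed at 400 per well, compounds added by pin tool, plates incubated ≥48 hr at 37 °C, then CellTiter-Glo added for 30 min at room temperature before luminescence reading. Line: DT40 Tdp1-/- complemented with hTDP1; camptothecin omitted.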
On the % scale 0 is the no-effect control and ±100 the full control effect; potency means the concentration at half of the fitted maximal effect; tags describe the fitted curve by direction and shape.

Compound	Potency	activity change, negative = growth inhibition
Cc1c(C(=O)N2CCOc3ccc(Cl)cc3C2)sc2ncnc(NCCc3ccccn3)c12	inconclusive: 14.6 µM [inhibitor, single point]	–
Nc1ccc(Cc2ccc([N+](=O)[O-])cc2)cc1	–	inconclusive: -31.1% [inhibitor]
S=C(NCc1ccncc1)Nc1ccc(Br)cc1	inconclusive: 11.6 µM [inhibitor, partial curve]	–
O=C(NCc1ccco1)c1cccc(NC(=O)c2ccco2)c1	–	inactive: -26%
CCCn1c(SCC(=O)Nc2cc(S(=O)(=O)N3CCOCC3)ccc2OC)n[nH]c1=O	–	inactive: -21.9%
Cc1ccc(C(=O)c2sc(Nc3ccc(F)cc3)nc2N)c(C)c1	active: 14.6 µM	–
CCN1CCN(c2ccc(NC(=O)c3cc(S(=O)(=O)N4CCCC4)ccc3Cl)cc2)CC1	active: 25.9 µM	–
COc1ccc(-n2nnnc2SCC(=O)Nc2nnc(C)s2)cc1	active: 5.62 µM	–
Cn1c(Cn2c(=O)sc3ccccc32)nnc1SCC(=O)NCc1ccccc1	inconclusive: 13 µM [inhibitor, partial curve]	–
Cc1cc(-c2nc(-c3ccncc3)no2)ccc1[N+](=O)[O-]	inconclusive: 18.4 µM [inhibitor, single point]	–
CCN(Cc1ccccc1)C(=O)c1ccc(CS(=O)c2ccccc2C)o1 (stereo unspecified)	inconclusive: 13 µM [inhibitor, partial curve]	–
COc1ccc(NC(=O)C2CC(c3ccc(Cl)cc3)=NO2)cc1OC (stereo unspecified)	inconclusive: 3.26 µM [inhibitor, partial curve]	–
O=C(CCN1C(=O)c2ccccc2S1(=O)=O)Nc1cccc(F)c1	–	inactive: -15.2%
O=C1CCCc2[nH]c(=O)c(-c3nc(-c4cccc([N+](=O)[O-])c4)cs3)cc21	inconclusive: 8.2 µM [inhibitor, partial curve]	–
Cc1cc(C(=O)Nc2nnc(-c3ccccc3)s2)no1	–	inactive: -14.8%
Nc1ncccc1C(=O)OCC(=O)N1CCN(S(=O)(=O)c2ccc(Cl)cc2)CC1	inconclusive: 20.6 µM [inhibitor, partial curve]	–
CCOc1ccc(C(C(=O)NCC2CCCO2)N(C(=O)c2snc(C(N)=O)c2N)c2cccc(F)c2)cc1 (stereo unspecified)	inconclusive: 16.4 µM [inhibitor, single point]	–
COc1ccccc1NCCC(=O)OCC(=O)NC1CC1	–	inactive: -12%
O=C(NC12CC3CC(CC(C3)C1)C2)c1ccccc1O	–	inconclusive: -32.6% [inhibitor]
CC(=O)c1ccc(NC(=O)Cn2c(=O)oc3cc(S(=O)(=O)N4CCCCC4)ccc32)cc1	–	inactive: -23.3%
Cc1ccc2c(c1)C(C)(c1ccccc1)CC(C)(C)N2C(=O)c1ccc(F)cc1 (stereo unspecified)	active: 13 µM	–
FC(F)Sc1ccc(-n2c(-c3ccc(Cl)cc3)c[n+]3c2CCC3)cc1	active: 14.6 µM	–
CC(C)C(NC(=O)c1ccccc1)C(=O)N/N=C\c1ccco1 (stereo unspecified)	–	inactive: -1.06%
COc1ccccc1CNC(=O)CN1C(=O)N(C)C2(CCCCC2)C1=O	–	inactive: -16.4%

Compound	Potency	activity change, negative = growth inhibition
COc1cc(OC)cc(C(=O)N[C@H](C(=O)NCc2ccco2)C(C)C)c1	active: 14.6 µM	–
C[N+]1(CCn2ccc3ccccc32)CCCCC1	–	inactive: -8.58%
O=S(=O)(c1ccc(N2CCOCC2)cc1)N1CCOCC1	–	inactive: -19.5%
CCOC(=O)c1cc2c(=O)n3ccccc3nc2n(Cc2ccco2)c1=NC(=O)c1ccc(F)cc1	inconclusive: 29.1 µM [inhibitor, single point]	–
CC(=O)Nc1ccc(-c2ccnc3c2CC(C)(C(=O)NCCN(C)C)O3)cc1 (stereo unspecified)	inconclusive: 6.51 µM [inhibitor, single point]	–
O=C(CCNS(=O)(=O)c1ccc(Br)cc1)NCC(c1cccs1)N1CCOCC1 (stereo unspecified)	–	inactive: -25.7%
Cc1cc2c(=O)n(CC(=O)N3CCN(c4ccc(F)cc4)CC3)cnc2s1	inconclusive: 29.1 µM [inhibitor, single point]	–
O=C1C=C(c2cnc3ccccc3c2)C[C@@H](c2ccc3c(c2)OCO3)C1	inconclusive: 29.1 µM [inhibitor, single point]	–
CCOc1ccc(-n2cc(-c3ccc(OC)c(OC)c3)[nH]c2=S)cc1	inconclusive: 16.4 µM [inhibitor, single point]	–
N#C/C=C\Oc1ccc(Cl)cc1N	inconclusive: 29.1 µM [inhibitor, single point]	–
O=C(OCC(=O)N1CCC(Cc2ccccc2)CC1)c1ccccc1NCCO	inconclusive: 18.4 µM [inhibitor, partial curve]	–
COc1ccc2oc(=N)c(C(=O)Nc3cccc(C)c3C)cc2c1	–	inactive: -2.08%
Cc1ccc(-c2c3c(=O)n(C)c(=O)n(C)c3cn2N2CCOCC2)cc1	inconclusive: 18.4 µM [inhibitor, single point]	–
COC[C@@H]1CCCN1[C@H]1CS(=O)(=O)N[C@@H]1COCc1ccccc1	–	inactive: 1.27%
Cc1cc(C(=O)CSc2n[nH]c(N)n2)c(C)n1-c1ccc(F)cc1	inconclusive: 11.6 µM [inhibitor, partial curve]	–
CSCCC(C)N1CCC(Oc2ccc(C(=O)N3CCCC3)cc2)CC1 (stereo unspecified)	–	inactive: -2%
CCN(CCCNC(=O)Cn1ncc2c3ccccc3n(C)c2c1=O)c1cccc(C)c1	inconclusive: 25.9 µM [inhibitor, single point]	–
Cc1ccccc1C(=O)n1nc(-c2cccnc2)nc1NCc1ccc(F)cc1	inconclusive: 16.4 µM [inhibitor, single point]	–
COc1ccccc1CNS(=O)(=O)c1ccc(-c2cc(C)no2)cc1	active: 0.58 µM	–
Cc1ccc(C)c(S(=O)(=O)N2CCCC2CNC(=O)C(=O)NCc2ccccc2)c1 (stereo unspecified)	inconclusive: 16.4 µM [inhibitor, single point]	–
O=C(Nc1cccc(Cl)c1)c1cc(S(=O)(=O)N2CCC3(CC2)OCCO3)ccc1F	inconclusive: 29.1 µM [inhibitor, single point]	–
CCCOc1ccc(C(=O)NCCc2ccccc2)cc1	–	inactive: -5.72%
Cc1ccc(-n2cnc3c(=O)[nH]cnc32)cc1	–	inactive: 9.09%
Nc1c(Cl)cc(C2=NCCn3c2c2ccccc2[n+]3[O-])cc1Cl	inconclusive: 16.4 µM [inhibitor, partial curve]	–

Compound	Potency	activity change, negative = growth inhibition
COc1ccc2cnn(CCOc3ccccc3)c(=O)c2c1OC	inconclusive: 29.1 µM [inhibitor, single point]	–
CC(NC(=O)c1cc2c(=O)n(C)c3ccccc3c2n1C)c1ccc2c(c1)OCCO2 (stereo unspecified)	active: 13 µM	–
CCOC(=O)c1ccccc1NC(=O)COc1cc(=O)n(CC)c2ccccc12	inconclusive: 20.6 µM [inhibitor, single point] and inconclusive: 2.31 µM [inhibitor, single point]	–
CC(C)(C)C(=O)N1N=C(c2ccc(NS(C)(=O)=O)cc2)CC1c1cccs1 (stereo unspecified)	inconclusive: 25.9 µM [inhibitor, single point]	–
O=C(COC(=O)/C=C/c1ccc(S(=O)(=O)N2CCOCC2)cc1)NCc1ccc(F)cc1	active: 11.6 µM	–
Cc1cc(OCC(=O)Nc2nc3c(s2)CCCC3)cc(C)c1Cl	inconclusive: 11.6 µM [inhibitor, partial curve]	–
COc1cc2c(NC3CCN(C)CC3)nc(N3CCCN(C)CC3)nc2cc1OCCCCC(N)=O	–	inactive: -12.3%
NS(=O)(=O)c1ccc(CCNC(=O)C2CCCN2S(=O)(=O)c2cccc3nsnc23)cc1 (stereo unspecified)	–	inactive: -12.7%
Cc1ccc(-n2ncc3c(N4CCCCC4)ncnc32)cc1	inconclusive: 23.1 µM [inhibitor, single point]	–
CC(NC(=O)c1nn(C)c(=O)c2ccccc12)c1ccccc1 (stereo unspecified)	inconclusive: 20.6 µM [inhibitor, partial curve]	–
O=C(CC12CC3CC(C1)CC(CC(=O)NC1=NCCS1)(C3)C2)NC1=NCCS1	–	inactive: -4.06%
Cc1cc(C(=O)COC(=O)C2=NNC(=O)CC2)c(C)n1-c1cccc(C(F)(F)F)c1	–	inactive: -8.09%
COc1ccc(Cl)cc1NC(=O)c1sc2nc3c(cc2c1N)CN(C)CC3	inconclusive: 29.1 µM [inhibitor, single point]	–
CCOCCN(C(=O)c1ccccc1Cl)c1ccccc1	inconclusive: 20.6 µM [inhibitor, partial curve]	–
CCc1nnc(N/N=C/c2cc(C)c(C)cc2C)n1N	inconclusive: 1.46 µM [inhibitor, full curve, poor fit]	–
Cc1ccc(-c2nc3ccccc3[nH]2)cc1NC(=O)c1sc2ccccc2c1Cl	inconclusive: 25.9 µM [inhibitor, single point]	–
c1ccc(N2CCCCC2)c(Nc2nc3ccccc3n3cnnc23)c1	active: 20.6 µM	–
Cc1ccc2c(=O)cc(C(=O)NCc3ccccc3)oc2c1C	–	inconclusive: -35.7% [inhibitor]
CCN(CC)C(=O)c1sc(NC(=S)N2CCN(C(=O)C3CCCO3)CC2)c(C(=O)OC)c1C (stereo unspecified)	inconclusive: 25.9 µM [inhibitor, single point]	–
CCOc1ccccc1NC(=O)Cn1c(=O)n(Cc2ccccc2)c(=O)c2c3c(sc21)CN(C(C)=O)CC3	inconclusive: 29.1 µM [inhibitor, single point]	–
CN(C)CCCNS(=O)(=O)c1ccc(N2CCN(Cc3ccc4c(c3)OCO4)CC2)c([N+](=O)[O-])c1	active: 20.6 µM	–
CN(C(=O)c1ccc(NC(=O)Cc2cccc(NC(=O)C3CCN(C(=O)C4CCCC4)CC3)c2)cc1)C1CC1	inconclusive: 29.1 µM [inhibitor, single point]	–
CC(CCc1ccccc1)NC(=O)COc1ccc(S(=O)(=O)N2CCOCC2)cc1[N+](=O)[O-] (stereo unspecified)	inconclusive: 18.4 µM [inhibitor, single point]	–
